Results from the RNAGym collection of RNA variant scans (doi:10.1093/nar/gkz1192).
Read counts are not given, so values of variants with three or more changes are uncertain.

B1: CPEB3 Ribozyme (parent)
chain: UAACAGGGGGCCACAGCAGAAGCGUUCACGUCGCAGCCCCUGUCAGAUUCUGGUGAAUCUGCGAAUUCUGCUGUAUAUCUC

Variants of: B1
Experiment: self-cleavage, relative activity (ratio to wild type); higher = more cleavage; in vitro, sequencing
Summary of the method: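 Barcoded CPEB3 ribozyme mutants, produced by rounds of error-prone PCR, self-cleaved while being transcribed with T7 RNA polymerase for 5 hours at 37°C and during a subsequent 15 min DNase I step before EDTA was added. Sequencing of template-switched cDNA on Illumina gave cleaved and total reads, and DNA sequencing assigned barcodes to variants. Each variant's relative activity is its cleaved/total read fraction divided by the unmutated ribozyme's fraction, averaged across three batches. A variant needed a minimum of 5 reads.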

**Q.** Which self-cleavage does the source give for UAACGGGGGGCCACAGCUGAAGCGUUCACGUCGCAGCCCCUGUCAGAUUCUGGUGAAUCUGCGAAUUCUGCUGUAAAUCUC here?
**A.** 0.36

**Q.** For UAACGGGGGGCCACAGCUGAAGCGUUCACGUCGCAGCCCCUGUCAGAUUCUGGUGAAUCUGCGAAUUCUGCUGUAUAUCAC, which self-cleavage is on record?
**A.** 0.49

**Q.** With UAACGGGGGGCCACAGCAGGAGCGUUCCCGUCGCAGCCCCUGUCAGAUUCAGGCGAAUCUGCGAAUUCUGCUGUAUAUCAC as the variant, how does the self-cleavage read?
**A.** 0.59

**Q.** For UAACGGGGGGCCACAGCAGGAGCGUUCGCGUCGCAGCCCCUGUCAGAUUCUGGUGAAUCUGCGAAUUCUGCUGAAUACCUC, which self-cleavage is on record?
**A.** 0.15

**Q.** For UAACGGGGGGCCACAGCAGGAGCGUUCACGUCGCAGCCCCUGUCAGGUUCUGGUGUAUCUGCGAAUUCUGCUGUAUAUCUC, which self-cleavage is on record?
**A.** 0.21

**Q.** With UAACGGGGGGCCACAGCAGGAGCGUUCACGUCGCAGCCCCUGUCAGGUUCUGGUGAAUCUGCGAAUUCUGCUCUAUAUCUC as the variant, how does the self-cleavage read?
**A.** 0.86

**Q.** With UAACGGGGGGCCACAGCAGGAGCGUUCACGUCGCAGCCCCUGUCAGAUUCUGGUGAGCCUGCGAAUUCUGCAGUUUAUCUC as the variant, how does the self-cleavage read?
**A.** 0.12

**Q.** For UAACGGGGGGCCACAGCAGGAGCGUUCACGUCGCAGCCCCUGUCAGAUUCUGGUGAAUCUGCGUAUACUGCUGUAUAUCUC, which self-cleavage is on record?
**A.** 0.33

**Q.** For UAACGGGGGGCCACAGCAGGAGCGUUUACGCCGCAGCCCCUGUCAGAUUCUGGUGAAUCUGCAAAUUCUGCUGUAUAUCUC, which self-cleavage is on record?
**A.** 0.25

**Q.** With UAACGGGGGGCCACAGCAGGAGCGUUCAUGUCGCAGCCCCUGUCAGAUUCUGGUGAAUCUGCGAAUUCUGCUGUAUAUCUC as the variant, how does the self-cleavage read?
**A.** 0.3

**Q.** Which self-cleavage does the source give for UAACGGGGGGCCACAGCAGGAGCGUUCACGUCGUAGCCCCUGUCAGAUUCUGGUGAAUCUGCGAAUUCUGCCGUAUAUCUC here?
**A.** 0.71

**Q.** Which self-cleavage does the source give for UAACGGGGGGCCACAGCAGGAGCGUUCACGUCGCAGGCCCUGUCGGAUUCUUGUGAAUCUCCGAAUUCUGCUGUAUAUCUC here?
**A.** 0.09

**Q.** Which self-cleavage does the source give for UAACGGGGGGCCACAGCAGGAGCGUUCACGUCGCAGCCGCUGUCAGAUUCUGGUGAAUCUGCGAAUUCUGCCGUAUAUCCC here?
**A.** 0.05

**Q.** With UAACGGGGGGCCACAGCAGGAGCGUUCACGUCGCAGCCCCUGUCAGAUUCUGGUGAAUCUGUGAACUCUGCUGUAUAUCUC as the variant, how does the self-cleavage read?
**A.** 0.37

**Q.** For UAACGGGGGGCCACAGCAGGAGCGUUCACGUCCCAGCCCCUGUCUGACUCUGGUGAAUCUGCGAAUUCUGCGGUACAUCUC, which self-cleavage is on record?
**A.** 0.08

**Q.** Which self-cleavage does the source give for UAACGGGGGGCCACAGCAGGAGCGUUCACGUCGCAGCCCCUGUCAGAUUCUGGUUAAUCCGCGAAUUCUGCCGUAUAUCUC here?
**A.** 0.29

**Q.** For UAACGGGGGGCCACAGCAGGAGCGCUCACGUCGCGGCCCCUGUCAGAUUCUGGUGAAUCUGCGAAUUCUGCUGUAUAUCUC, which self-cleavage is on record?
**A.** 0.37

**Q.** With UAACGGGGGGCCACAGCAGGAGCGCUCACGUCGCAGCCCCUGUCAGAUUCUGGUGAGUCCGCGAAUUCUGCUGUAUAUCUC as the variant, how does the self-cleavage read?
**A.** 0.48

**Q.** With UAACGGGGGGCCACAGCAGGAGCGCUCACGUCGCAGCCCCUGUCAGAUUCUGGUGAAUCUGCGAAUUCUGCUGUACAUCAC as the variant, how does the self-cleavage read?
**A.** 0.85

**Q.** For UAACGGGGGGCCACAGCAGGAGCGUACACGUCGCAGCCCCUGUCAGAUUCUGGUGAAUCUGCGAAUUCUGCAGUAUAUCUC, which self-cleavage is on record?
**A.** 0.1

**Q.** With UAACGGGGGGCCACAGCAGGAGCGUGCACGUCGCAGCCCCUGUCAGAUUCUGGUGAAUCUGCGAGUUCCGCUGUAUAUCUC as the variant, how does the self-cleavage read?
**A.** 0

**Q.** For UAACGGGGGGCCACAGCAGGAGCGUUCACGACGCAGCCCCUGUCAGAUUCUGGUGAAUCUGCGAAUUCUGCUGUAUAUCUC, which self-cleavage is on record?
**A.** 0.67

**Q.** With UAACGGGGGGCCACAGCAGGAGCGUUCACGCCGCAGCCCCUGUCAGAUUCUGGUGAAUCUGCGAGUUCUGCUGUAUAUCCC as the variant, how does the self-cleavage read?
**A.** 0.13

**Q.** For UAACGGGGGGCCACAGCAGGAGCGUUCACGUCGCAGCCCCAGUCAGAUUCUGGUGAAUCUGCACAUUCUGCUGUAUACCUC, which self-cleavage is on record?
**A.** 0.1

**Q.** For UAACGGGGGGCCACAGCAGGAGCGUUCACGUCGCAGCCCCCGUCAGAUUCUGGUGAAUCUGCGAAUUCUGCUGUAUAUCUC, which self-cleavage is on record?
**A.** 0.2

**Q.** For UAACGGGGGGCCACAGCAGGAGCGUUCACGUCGCAGCCCCUGUCAGAUUCUGGUGAACCUGCGAAUCCUGCUGUAUAUCUC, which self-cleavage is on record?
**A.** 0.14

**Q.** For UAACGGGGGGCCACAGCAGGAGCGUUCACGUCGCAGCCCCUGUCAGAUUCUGGUGAAUCUGCGAAUACUGCUGUAUAUCUC, which self-cleavage is on record?
**A.** 0.24

**Q.** With UAACGGGGGGCCACAGCAGGAGCGUUCACGUCGCAGCCCCUGUCAGAUUCUGGUGAAUCUGCGAAUUCAGCUGCGUAACUC as the variant, how does the self-cleavage read?
**A.** 0.19

**Q.** With UAACGGGGGGCCACAGCAGUGGCGUUCACGUCGCUGCCCCUGUCAGAUUCUGGUGAGUCAGCGAAUUCUGCUGUAUAUCUC as the variant, how does the self-cleavage read?
**A.** 0.07

**Q.** Which self-cleavage does the source give for UAACGGGGGGCCACAGCAGUAGCGUUCGCGUCGCAGCCCAUGUCAGAUUCUGGGUAAACUGCGAAUUCUGCUGUAUAUCUC here?
**A.** 0.07

**Q.** With UAACGGGGGGCCACAGCAGUAGCGUUCACGUCGCAGCCCCUGUCAGAUUCUGGUGGAUCUGCGAAUUCUGCUGUAUAUCUC as the variant, how does the self-cleavage read?
**A.** 0.36

**Q.** With UAACGGGGGGCCACAGCAGUAGCGUUCACGUCGCAGCCCCUGUCAGAUUCUGGUGAGUCUGCGGAUACAGCCGUAUAUCUC as the variant, how does the self-cleavage read?
**A.** 0.04

**Q.** For UAACGGGGGGCCACAGCAGUAGCGUUCACGUGGCUGCCCCUGUCAGAUUCUGGUGAAUCUGCGAAUUCUGCUGUAUAUCUC, which self-cleavage is on record?
**A.** 0.11

**Q.** With UAACGGGGGGCCACAGCAGUAGCGCUCACGUCGCAGCCCCUGUCAGAUUCUGGUGAAUCUGCUAAUUCUGCUGUAUAUCUC as the variant, how does the self-cleavage read?
**A.** 0.37
